We go through eight molecules from publication PMC3542337.

Changes are numbered by the printed parent chain. In names and notes the source's numbering stands. No constants are given. Whether binding was seen depends on the method and setting. In cells and extracts the contact can be indirect. Some results given as binding are weak or reduced against the parent protein; the word gives no strength. For some of these results: Where a sequence is shown, tags or fusion partners need not be part of it.

Assay [1] concerns the target C106S DJ-1 (FLAG-tagged and One-STrEP-tagged, in 293T cells) (human) (UniProt Q99497). As to the kind of experiment: co-IP; 293T cells co-transfected with FLAG-tagged and corresponding One-STrEP-tagged DJ-1; extracts (1% NP40) 54 hrs after transfection immunoprecipitated with anti-FLAG M2 agarose; blotted with anti-STrEP.
Assay [2] shares this target. As to the kind of experiment: cross-linking; 293T cells transfected with FLAG-tagged DJ-1; extracts 24 hrs after transfection reacted with 5 mM DSS for 30 min; Western blot with anti-FLAG; dimer around 45 kDa.
In assay [3] the target is wild-type DJ-1 (FLAG-tagged and One-STrEP-tagged, in 293T cells) (human) (UniProt Q99497). As to the kind of experiment: pull-down; 293T cells co-transfected with FLAG-tagged and One-STrEP-tagged DJ-1; extracts applied onto Strep-Tactin sepharose; bound proteins blotted with anti-STrEP and anti-FLAG.
In assay [4] the target is C106S DJ-1 (FLAG-tagged and One-STrEP-tagged, in 293T cells) (human) (UniProt Q99497). Described as above.
The target in assay [5] is C106S DJ-1 (HA-tagged and One-STrEP-tagged, in DJ-1(-/-) cells) (human) (UniProt Q99497). As to the kind of experiment: pull-down; DJ-1(-/-) mouse cells co-transfected with HA-tagged and corresponding One-STrEP-tagged DJ-1; extracts 26 hrs after transfection applied onto Strep-Tactin Sepharose; blotted with anti-HA and anti-StrEP.
Assay [6] concerns the target E18A/C106S DJ-1 (HA-tagged and One-STrEP-tagged, in DJ-1(-/-) cells) (human) (UniProt Q99497). The assay is described as above.
Assay [7] concerns the target E18S DJ-1 (HA-tagged and One-STrEP-tagged, in DJ-1(-/-) cells) (human) (UniProt Q99497). The assay is described as above.
The target in assay [8] is H126A DJ-1 (FLAG-tagged and One-STrEP-tagged, in 293T cells) (human) (UniProt Q99497). As to the kind of experiment: co-IP; 293T cells co-transfected with FLAG-tagged and corresponding One-STrEP-tagged DJ-1; extracts (1% NP40) 54 hrs after transfection immunoprecipitated with anti-FLAG M2 agarose; blotted with anti-STrEP.
The target is the same in assay [9]. As to the kind of experiment: cross-linking; 293T cells transfected with FLAG-tagged DJ-1; extracts 24 hrs after transfection reacted with 5 mM DSS for 30 min; Western blot with anti-FLAG; dimer around 45 kDa.
For assay [10] the target is unchanged. As to the kind of experiment: pull-down; 293T cells co-transfected with FLAG-tagged and One-STrEP-tagged DJ-1; extracts applied onto Strep-Tactin sepharose; bound proteins blotted with anti-STrEP and anti-FLAG.
For assay [11], the target named is T1, wild-type DJ-1 (FLAG-tagged and One-STrEP-tagged, in 293T cells) (human), Q99497.
T1 chain: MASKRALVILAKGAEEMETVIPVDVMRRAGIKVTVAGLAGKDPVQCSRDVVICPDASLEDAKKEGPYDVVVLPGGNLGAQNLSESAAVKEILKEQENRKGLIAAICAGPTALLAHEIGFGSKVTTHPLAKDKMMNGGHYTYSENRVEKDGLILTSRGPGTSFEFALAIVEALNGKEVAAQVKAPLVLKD
Described as above. As to conditions: remark: other sources report otherwise.

In assay [12] the target is T1, wild-type DJ-1 (FLAG-tagged and …). As to the kind of experiment: cross-linking; 293T cells transfected with FLAG-tagged DJ-1; extracts 24 hrs after transfection reacted with 5 mM DSS for 30 min; Western blot with anti-FLAG; dimer around 45 kDa. As to conditions: remark: other sources report otherwise. For orientation: Immunoblotting shows a protein as a band on a membrane.

Assay [13] has the same target. As to the kind of experiment: co-IP; 293T cells co-transfected with FLAG-tagged and corresponding One-STrEP-tagged DJ-1; extracts (1% NP40) 54 hrs after transfection immunoprecipitated with anti-FLAG M2 agarose; blotted with anti-STrEP. As to conditions: remark: other sources report otherwise.
The target of assay [14] is T2, E18D DJ-1 (HA-tagged and One-STrEP-tagged, in DJ-1(-/-) cells) (human), Q99497.
T2 chain: T1 chain with E18D
As to the kind of experiment: pull-down; DJ-1(-/-) mouse cells co-transfected with HA-tagged and corresponding One-STrEP-tagged DJ-1; extracts 26 hrs after transfection applied onto Strep-Tactin Sepharose; blotted with anti-HA and anti-StrEP. As to conditions: remark: other sources report otherwise.

For “C106S DJ-1 (FLAG-tagged and One-STrEP-tagged, in 293T cells) (from UniProt Q99497 1-189)”, the binding result in assay [1], in assay [2], in assay [3] and in [4] was “binds” in each case.

Turning to “C106S DJ-1 (HA-tagged and One-STrEP-tagged, in DJ-1(-/-) cells) (from UniProt Q99497 1-189)”, the binding entry in assay [5] is reported as “binds”.

Take “E18A DJ-1 (FLAG-tagged and One-STrEP-tagged, in 293T cells) (from UniProt Q99497 1-189)”: the binding entry in [3] is listed as “binds”.

In the case of “E18A/C106S DJ-1 (HA-tagged and One-STrEP-tagged, in DJ-1(-/-) cells) (from UniProt Q99497 1-189)”, in [6], the binding result is recorded as “no binding”.

Consider “E18S DJ-1 (HA-tagged and One-STrEP-tagged, in DJ-1(-/-) cells) (from UniProt Q99497 1-189)”, for which the binding result in assay [7] is given as “no binding”.

Turning to “H126A DJ-1 (FLAG-tagged and One-STrEP-tagged, in 293T cells) (from UniProt Q99497 1-189)”, the binding entry in [8], in [9], in assay [10] and in [3] was “binds” each time.

B1: wild-type DJ-1 (FLAG-tagged and One-STrEP-tagged, in 293T cells), Q99497 1-189 (protein)
chain: T1 chain
Take B1: the binding entry in assay [11], in assay [12] and in assay [13] was “binds” in each case.

B2: E18D DJ-1 (HA-tagged and One-STrEP-tagged, in DJ-1(-/-) cells), Q99497 1-189 (protein)
chain: T1 chain with E18D
B2: the binding entry in assay [14] is “no binding”.
